The other results are listed elsewhere or left out.
B1: 60917833_60919184_1730_CDS_ENSMUSG00000021987_ENSMUST00000022563|mouse|control|control (ssRNA)
RNA: GGGAGUUCUACAGUCCGACGAUCCAGGGCAGGUGAUUCAGGGUGGACAGCAUGCAGCAACUCCUUCGUUAGGAUGCCAUUUUUGCAUUGCUUAAUUUUAGCCUCGAGGUCUUUAAUGUCUUCCUCUAACUGCUUGCUUUGCUCCAACAGAGGAUUGAGCAUCA
B2: 76672510_76672630_5891_3pUTR_ENSG00000089916_ENST00000261530|human|control|control (ssRNA)
RNA: GGGAGUUCUACAGUCCGACGAUCUCUACCACUUGCAUUUAGUUCUGAGUGAUGGAACUCACCAUUUUCCUCACCCUUUCCCUCUGUACCAGUUUUCUUCUAAGGGGCGAAAUUGUUGCCAGUGACAGUAACUCUGUGACCUUUCAACAGAGGAUUGAGCAUCA
B3: chr4:123027775:123027776:-_ENSMUSG00000028649_ENSMUST00000154824|mus_hu|motif|central (ssRNA)
RNA: GGGAGUUCUACAGUCCGACGAUCUUAUCUUGCUGAGAUAGCAAGUCAAGUUUAUAAAGAAGAUGCAUUUAGGAAUAAUCCGGAAAGAUAAAGCAGGUUUACAACCCUGCACCGCGCAGAAACCCUAUUAAUAGGCUUUUUUUUCAACAGAGGAUUGAGCAUCA
B4: chr2:20138125:20138126:-_ENSG00000118965_ENST00000281405|hu_hu|FALSE|FALSE (ssRNA)
RNA: GGGAGUUCUACAGUCCGACGAUCUUUAAUUCCAACCUUCUCAAUCAGUGCUCGGCUAUCUCGCAGAGACCGAAUCUCAAAGUUAAUUAGGUAAUCCUUGUUUGGAUGUUCUGGAUCCUUUAAUAUCUCAUCCAAAAGAACAGACAACAGAGGAUUGAGCAUCA
B5: chr1:229631779:229631780:-_ENSG00000069248_ENST00000261396|hu_mus|FALSE|FALSE (ssRNA)
RNA: GGGAGUUCUACAGUCCGACGAUCCAGUUCCCAUUUGCUGAUGUUUGAACUCGUCAGGGUGUAGAAACUUGAUCCUCCUCUGUCCCACAGAACACUGGCCAGCAUGAGGUCACUAGUAGGGGACAGAAUCCCGAAAAGGGAAGACAACAGAGGAUUGAGCAUCA
B6: chr3:130449232:130449233:-_ENSG00000196455_ENST00000356763|hu_hu|FALSE|FALSE (ssRNA)
RNA: GGGAGUUCUACAGUCCGACGAUCCUCAUCUAUUUCUUCAUUAUUGGGGUCAUUUUCCAUAUUAAGAUUUUUUAACUGUACUAAUUCCAGGAAUCUCAGAGCUGUUUCUGCCAGCAGAGCUAUGUUUUCAGCAUAGGCUAGUCUCAACAGAGGAUUGAGCAUCA
B7: chr1:51737530:51737531:+_ENSG00000123091_ENST00000242719|perfect_dup|FALSE|FALSE (ssRNA)
RNA: GGGAGUUCUACAGUCCGACGAUCACUGGUUUUCAAGCAUAGAGCCAGCCCCAACGAUAAUAAUACACUAUUUAAAAAGACCUAAGGCAAUGAAUUCCAUUUCCAAUGGAAAAAAAGAACUGUGCAAACAAGCUUAAAACUACUCAACAGAGGAUUGAGCAUCA
B8: chr17:15081082:15081083:+_ENSMUSG00000050088_ENSMUST00000052691|mus_hu|FALSE|FALSE (ssRNA)
RNA: GGGAGUUCUACAGUCCGACGAUCUCCCAGAGUGUGGUCAACGACUCAAAAGAGAAUUUCAAGUACCAGUUUCAAAAUGCUAAUUAAUAUCGUCCAGAGAACAGAUUCCUCCUCUUGCGAGGCGUCUUCCGGGGCACCAGCGUGCAACAGAGGAUUGAGCAUCA
B9: chr22:19452774:19452775:-_ENSG00000070010_ENST00000399523|hu_hu|hu_hu_hu_mus_False|18_78 (ssRNA)
RNA: GGGAGUUCUACAGUCCGACGAUCCUUCUCAUUGUAGUUGAUAGCAAUCACAUCUCCGGUGGUCAGACAGGCGAAGUUUCUCAAUGCAUUUUCUAAUACCGCUUUAGGGUUGGUAAUGUCCAGGAAGUCUGGGCUCUGAGGCUGCAACAGAGGAUUGAGCAUCA
B10: chr10:33190432:33190433:-_ENSG00000150093_ENST00000302278|hu_mus|motif|central (ssRNA)
RNA: GGGAGUUCUACAGUCCGACGAUCUACAUUUUCCAAACCUGCAUGUGAAUAAAACCCUGGCCACAGAGCCCCAAAACGGCCCGGCUGUGACUAAGAUGCUGCUGCUGUGAGCUUGGUGUUGCAAAAUCCGCCUGAGUAGGAUUCCAACAGAGGAUUGAGCAUCA
B11: chr4:140556289:140556290:+_ENSMUSG00000036622_ENSMUST00000037055|mus_mus|mus_mus_mus_hu_False|18_58 (ssRNA)
RNA: GGGAGUUCUACAGUCCGACGAUCGAUGGAGCUCACCAGGCCCCCUUUUGCCGUGCAGAACCCUGUGCGGGUCACCACUGCUAGCACGUGCGGUCCCACAUAGGCCCGGGCCUGCAAAAUGAGGGUGCCGCAGAAGAGUGUGUGCAACAGAGGAUUGAGCAUCA
B12: chr6:114281168:114281169:-_ENSG00000196591_ENST00000368632|hu_mus|FALSE|FALSE (ssRNA)
RNA: GGGAGUUCUACAGUCCGACGAUCUUCCAUUUUUCGGUAUAAACCAUAAUUUAGCAGCAAGUUAUGAGUCAUCCGGAUUCUAUGAGGCUUCAUGGGAUGACCCUGGCCAUAAUAAUAAUUGCCAAUAUCACCAUCAUAGUAGUACAACAGAGGAUUGAGCAUCA
B13: chr1:23395093:23395094:+_ENSG00000004487_ENST00000356634|perfect_dup|FALSE|FALSE (ssRNA)
RNA: GGGAGUUCUACAGUCCGACGAUCUGCCUGGCCAAGGGAUACAGGUUUAUUAUUGAGGACGUUGAAGUCUAACUGGUGACUAAGGUAAGAAGUGGCUUCUAGCAACCGGUUAAAUUCUUGUUCUACCAUUUCAUCUUUUUCUUUCAACAGAGGAUUGAGCAUCA
B14: chr11:4127340:4127341:+_ENSG00000167325_ENST00000300738|hu_mus|hu_hu_hu_mus_False|68_88 (ssRNA)
RNA: GGGAGUUCUACAGUCCGACGAUCGGCAUAGUCAGGGUGCUUCGUGGUCAAGGUUGCGGCUGUCUCAGCAGCCAAAGUGUCCAGUUCCACUGUGGUGACCCCACUAUAUAGGCCUUGGAUUACUUUCAUGGUGAUCUGAGCAGGCAACAGAGGAUUGAGCAUCA

biological target: T1, UNK ZnF1-3 (human, UniProt Q9C0B0 31-174); assay: nsRBNS (natural sequence RNA bind-n-seq); RBNS binding buffer (assumed for nsRBNS): 25 mM Tris pH 7.5, 150 mM KCl, 3 mM MgCl2, 0.01% Triton X-100, 500 ug/ml BSA, 20 U/ml SUPERase-In, 4 C; UNK is unkempt and MSI1 is Musashi-1; names of the RNAs are library labels; protein concentration not given here; high values mean tight binding
T1 sequence: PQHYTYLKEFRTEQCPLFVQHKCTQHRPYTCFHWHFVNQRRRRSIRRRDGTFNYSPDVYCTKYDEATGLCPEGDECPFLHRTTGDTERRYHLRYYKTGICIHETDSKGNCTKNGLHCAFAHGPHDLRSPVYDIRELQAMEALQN

| Binder | binding signal [enrichment R] |
| --- | --- |
| B1 | 0.839 |
| B2 | 0.607 |
| B3 | 0.647 |
| B4 | 0.73 |
| B5 | 0.735 |
| B6 | 1.06 |
| B7 | 1.34 |
| B8 | 1.21 |
| B9 | 0.914 |
| B10 | 1.16 |
| B11 | 1.42 |
| B12 | 0.884 |
| B13 | 0.691 |
| B14 | 1.04 |
